The shares of active, inactive and inconclusive entries below differ from those in the screen. Potencies of inconclusive entries are doubtful fits and often do not repeat. Calls of active or inactive are those of the source. Calls come from the whole dose curve; as a rule, active = well fitted inhibition curve with a large enough effect; inconclusive = small, poorly fitted or top-dose-only effect; inactive = no such curve, though single readings can be large or run the other way.
system: pyruvate kinase (Trypanosoma brucei); experiment: qHTS of Trypanosoma Brucei Inhibitors: Confirmatory Assay for Cherry-picked Compounds; settings: recombinant TbPYK, Kinase-Glo ATP luminescence; activity change, negative = inhibition: at 76.9 µM (top of the series); note: nearly all actives have a fitted effect of over 70% in size
Method in brief: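 Cherry-picked compounds were retested in concentration series against T. brucei PYK, 130 uM ADP, 45 min at room temperature; ATP read-out via Kinase-Glo Plus luminescence, with concentration-effect curves derived after normalization.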
% is set by controls: 0 for no effect and ±100 for the full control effect; potency is the fitted concentration of half-maximal effect; tags give direction and shape of the fitted curve.

**Q.** For `Cc1ccc(S(=O)c2ccc([N+](=O)[O-])c3nonc23)cc1` (configuration not stated), which “activity change, negative = inhibition” value is on record?
**A.** inactive: -95.9%

**Q.** For `FC(F)(F)Oc1ccc(Nc2nc(N3CCOCC3)nc(N3CCOCC3)n2)cc1`, which “activity change, negative = inhibition” value is on record?
**A.** inactive: 5.41%

**Q.** `O=c1nccc(N/N=C/c2ccccc2O)[nH]1` was tested. Which Potency did it give?
**A.** inconclusive: 31.6 µM [inhibitor, partial curve]

**Q.** `O=c1cc(O)n(-c2ccccc2)c(=S)[nH]1` was tested. Which Potency did it give?
**A.** inconclusive: 50.1 µM [inhibitor, single point]

**Q.** With `CCOC(=O)C1Nc2ccc(C(F)(F)F)cc2C2C=CCC12` (configuration not stated) as the molecule, how does the Potency read?
**A.** inconclusive: 25.1 µM [inhibitor, partial curve, poor fit]

**Q.** For `COc1ccc(N2C3=C(CC4=C2CCCC4=O)C(=O)CCC3)cc1`, which “activity change, negative = inhibition” value is on record?
**A.** inactive: -6.94%

**Q.** Which “activity change, negative = inhibition” value does the source give for `COCCn1c(C)cc(C(=O)COC(=O)c2ccc3ncsc3c2)c1C` here?
**A.** inactive: -0.901%

**Q.** Which Potency does the source give for `O=C(CSc1nnc(-c2ccco2)n1CC1CCCO1)c1ccc(F)cc1` (configuration not stated) here?
**A.** inconclusive: 35.5 µM [inhibitor, partial curve, poor fit]

**Q.** Which Potency does the source give for `Fc1cccc(/C=N/Nc2nccnc2Cl)c1` here?
**A.** inconclusive: 25.1 µM [inhibitor, partial curve]

**Q.** For `CCC1Oc2ccc(C)cc2N(CC(=O)N(Cc2ccc(C)o2)C2CCCC2)C1=O` (configuration not stated), which Potency is on record?
**A.** active: 15.8 µM

**Q.** Which “activity change, negative = inhibition” value does the source give for `Fc1cccc(Cc2c(-c3ccco3)nc3ccc(Cl)cn23)c1` here?
**A.** inactive: -28.5%

**Q.** With `COc1cccc(/C=N/N2C(=O)CSC2=S)c1O` as the molecule, how does the Potency read?
**A.** inconclusive: 14.1 µM [inhibitor, partial curve]

**Q.** Which Potency does the source give for `CC1=NOC(=O)/C1=C\c1ccc(-c2ccccc2Br)o1` here?
**A.** inconclusive: 31.6 µM [inhibitor, partial curve, poor fit]

**Q.** Which Potency does the source give for `O=[N+]([O-])c1ccc2c(c1)-c1ccccc1C2O` (configuration not stated) here?
**A.** inconclusive: 28.2 µM [inhibitor, partial curve, poor fit]

**Q.** Which Potency does the source give for `Fc1cccc(C[n+]2csc3ccccc32)c1` here?
**A.** inconclusive: 0.794 µM [inhibitor, partial curve]

**Q.** For `N#CC1=C2SCN(c3ccccc3)CN2C(=O)CC1c1c(Cl)cccc1Cl` (configuration not stated), which Potency is on record?
**A.** active: 3.16 µM

**Q.** Which “activity change, negative = inhibition” value does the source give for `CCOC(=O)C1=C(N)N(c2ccccc2)C(=O)C1` here?
**A.** inactive: -2.11%

**Q.** `COc1ccc(C(Nc2ccccn2)c2oc(CO)cc(=O)c2O)cc1` (configuration not stated) was tested. Which “activity change, negative = inhibition” value did it give?
**A.** inactive: 39.7%

**Q.** Which Potency does the source give for `CC1CCN(C(=S)NC(=O)c2cccs2)CC1` here?
**A.** inconclusive: 12.6 µM [inhibitor, partial curve]

**Q.** `CC(=O)C1=C(C)NC(SCC(N)=O)=C(C#N)C1C` (configuration not stated) was tested. Which Potency did it give?
**A.** inconclusive: 28.2 µM [inhibitor, partial curve]

**Q.** For `COc1ccc(N2C(=O)CC(Sc3ncn[nH]3)C2=O)c(OC)c1` (configuration not stated), which Potency is on record?
**A.** inconclusive: 5.01 µM [inhibitor, single point]

**Q.** Which “activity change, negative = inhibition” value does the source give for `Cc1occc1-c1nnc(SCc2nnc(-c3ccc(Cl)cc3)o2)n1C` here?
**A.** inactive: -7.53%
